Data taken from the BET-seq Pho4 binding data (Le et al. 2018).
Some of the results follow. The energies were worked out here from pooled read counts, against the library average; single values are noisy.

target: T1, Pho4 (S. cerevisiae) (UniProt P07270); experiment: relative binding free energy (BET-seq); higher = weaker binding; details: reference: library average
T1 sequence: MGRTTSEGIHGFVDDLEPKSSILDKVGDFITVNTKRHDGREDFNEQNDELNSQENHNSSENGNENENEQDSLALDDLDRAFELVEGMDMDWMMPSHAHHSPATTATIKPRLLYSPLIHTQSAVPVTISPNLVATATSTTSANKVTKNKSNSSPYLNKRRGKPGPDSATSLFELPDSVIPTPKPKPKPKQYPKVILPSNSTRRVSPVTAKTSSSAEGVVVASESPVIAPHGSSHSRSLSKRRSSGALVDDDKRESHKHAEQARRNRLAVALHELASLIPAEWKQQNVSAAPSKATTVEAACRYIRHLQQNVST

Sequence | relative binding free energy [kcal/mol]
CTTTGCACGTGATGGG | 0.04
TGGGTCACGTGTAAAC | 0.44
TATGGCACGTGCTGTA | -0.17
GTTGGCACGTGGATGC | -0.09
GCGTGCACGTGGTATT | 0.02
TTGTACACGTGTGTGC | 0.19
TTTCTCACGTGGATAG | 0.24
GAGGTCACGTGTGGTA | 0.31
CTGTTCACGTGTCATG | 0.28
CTTTTCACGTGTTAGA | 0.27
TAGGGCACGTGGATTA | -0.07
GATTGCACGTGTTAAG | -0.09
GGGTGCACGTGGGCAG | -0.15
ATTTTCACGTGATGTG | 0.29
CGTGTCACGTGTGGGC | 0.15
CGTTTCACGTGTGGCC | 0.48
TTGTGCACGTGATGGC | 0.13
AGGGTCACGTGTCGTG | 0.1
ATACTCACGTGGGGTT | 0.01
ATACGCACGTGAGGGA | 0.15
TCCATCACGTGGTTGT | 0.17
AGAGACACGTGGGGCT | -0.16
CAGGTCACGTGGCGTT | -0.02
GGGCTCACGTGTGATG | 0.33
GTGTCCACGTGGAGTT | 0.17
TAATTCACGTGTGCTG | 0.2

Sequence | relative binding free energy [kcal/mol]
TGAGTCACGTGTGTCA | 0.24
TGTCGCACGTGTGAAG | -0.02
AGCGTCACGTGCTGGT | 0.03
TTGAGCACGTGAGCGT | 0.11
AGTGTCACGTGTGTAC | 0.06
AGTCGCACGTGTTAGG | -0.07
TTGTACACGTGTACGT | 0.14
GGATTCACGTGCATTT | 0.28
TGCTTCACGTGGAGGA | 0.25
CTTGGCACGTGTAGGT | 0.02
GGGGACACGTGCGGAT | 0.01
CAGGGCACGTGCTTGT | -0.19
GAGGACACGTGAGTTA | 0.46
ATAGGCACGTGTTTGA | -0.05
TGGGTCACGTGTCATT | 0.03
TAAGGCACGTGAATGT | 0.15
TATTGCACGTGTTTTA | -0.03
CGTGGCACGTGTACGT | -0.08
TAGAACACGTGTGGAA | 0.13
GATGTCACGTGGGTAT | 0.04
CAGGTCACGTGAATTT | 0.53
GGGTTCACGTGGAGAC | 0.34
TTTGACACGTGTGTAG | 0.05
GACGGCACGTGTGTTA | 0.07
GCGGTCACGTGGAAGT | 0.11
GTTGTCACGTGGGTAT | 0.05

Sequence | relative binding free energy [kcal/mol]
GGAAACACGTGGTGAT | 0.04
GCGTGCACGTGGATCG | 0.18
TGGGGCACGTGCTGGG | -0.19
ATATGCACGTGTGAAA | -0.03
ATGGGCACGTGTGTAA | -0.11
GGATTCACGTGGAGAT | 0.29
TAGGCCACGTGCTGTG | -0.2
AAAGGCACGTGGCGGA | -0.2
GTATACACGTGGTAGA | -0.03
TTGGACACGTGTATAT | 0.03
ATAGGCACGTGTTGAA | -0.12
TATGCCACGTGGATTG | 0.05
GTTAGCACGTGTGCTT | 0.07
GGTGTCACGTGGCATT | 0.15
CTTAGCACGTGTGCGG | -0.17
GAGTCCACGTGTTGGT | 0.05
GGAGGCACGTGTAAGT | 0.08
TTATACACGTGCGATG | 0.06
TGCGACACGTGGTGGC | 0.03
GCGATCACGTGTTTTA | 0.32
TTGGTCACGTGGTTCA | 0.07
GATTTCACGTGCTAGT | 0.38
CTCGGCACGTGGAGGG | -0.08
TAAGACACGTGGTATA | -0.1
AATGGCACGTGAAGTT | 0.07
GGTAGCACGTGTAGTA | -0.06

Sequence | relative binding free energy [kcal/mol]
GGTAGCACGTGGGAAT | 0.06
ATTATCACGTGGCGGG | 0.05
GTATGCACGTGGATAT | 0.08
AGGGGCACGTGGCGTT | -0.16
TTGGGCACGTGGAGGA | -0.14
GAGTACACGTGACGGT | 0.16
ATATACACGTGTAATG | 0.06
GTGGGCACGTGTTTGT | -0.07
TTATACACGTGTACTT | 0
CGTGTCACGTGTTGGC | 0.08
TCCGTCACGTGAGGTG | 0.23
ACTAGCACGTGGGTTG | -0.2
ATGGGCACGTGACTGG | 0.09
GAGGTCACGTGGTGCC | 0.19
AAGTCCACGTGAGTGG | 0.19
TGTCGCACGTGTGTGC | -0.05
AGTGTCACGTGGGTTA | -0.02
GCGTACACGTGGCGGT | 0.03
TATAACACGTGTTTAA | -0.09
GTGTACACGTGTGCGT | 0.05
TTCGACACGTGCGGGT | -0.03
GTTTGCACGTGTTTAC | 0.11
GCAGTCACGTGGTATT | 0.08
TGGATCACGTGCTTGT | 0.09
ATAGACACGTGGCTGG | 0.05
TGAGACACGTGTGTGC | 0.08

Sequence | relative binding free energy [kcal/mol]
TCTGACACGTGGGTTC | 0.03
CGTGTCACGTGCGGCT | 0.1
CTTAGCACGTGAATGG | 0.28
GAGGGCACGTGCAGTA | 0.05
CTGTACACGTGGACGG | 0.27
GTAAGCACGTGTTCGT | -0.08
CGTCTCACGTGGTTAT | 0.24
AAGAACACGTGGGTTG | -0.03
TGGCACACGTGATTTT | 0.25
GGGTTCACGTGAAGAA | 0.41
CATATCACGTGGGGCA | 0.14
GGTCGCACGTGGGGTG | -0.19
TTTAGCACGTGATATA | 0.15
GTCTTCACGTGGGCGT | 0.14
ATTGACACGTGTGTTC | 0.13
TTTGACACGTGCATTG | -0.12
CTAGTCACGTGATATG | 0.33
TTGCTCACGTGTTGGA | 0.24
CGAGGCACGTGCGGGG | -0.12
TCCGGCACGTGCGGGG | -0.16
TGTTACACGTGGTTTT | 0.17
GGGATCACGTGATAGG | 0.19
GAGTCCACGTGGGTAG | -0.07
TAATGCACGTGGGGAG | -0.01
TGTTCCACGTGTGTTC | 0.13
ATTGGCACGTGTATAT | -0.08

Sequence | relative binding free energy [kcal/mol]
GATGTCACGTGAAGGA | 0.47
ATTTTCACGTGTCACG | 0.29
AGGCGCACGTGATAGT | -0.01
TTTGGCACGTGGTTCG | -0.11
TTGAACACGTGCGGGA | 0.1
AGGGTCACGTGTCGGG | 0.18
GAGGACACGTGGGAGG | -0.03
GGAGGCACGTGGTATG | -0.12
GAGAGCACGTGGGGGT | -0.11
GGTATCACGTGGTAAA | 0.23
AGCGGCACGTGGTGAG | -0.06
CGGCTCACGTGGTTGT | 0.18
AGGGTCACGTGTGGTA | 0.12
GTCTGCACGTGATTTG | 0.14
TGGCGCACGTGGGTCA | -0.16
TTTGCCACGTGGTTTG | -0.1
GGGGACACGTGGTAAC | 0.12
TGATCCACGTGCGGCG | 0.18
ATGGGCACGTGTTGAT | -0.09
TAGGACACGTGAGTAG | 0.25
TTTAACACGTGCGGAG | 0.02
AAAGGCACGTGGGGAC | -0.2
TTGTTCACGTGCTTAA | 0.17
GTTGTCACGTGGCATG | -0.08
CCTTTCACGTGAGGGG | 0.42
CGTGGCACGTGCGGTC | -0.16

Sequence | relative binding free energy [kcal/mol]
TGTGGCACGTGTGTAT | -0.08
ATGGACACGTGATGAT | 0.28
GGGTTCACGTGGGCGT | 0.31
TGTACCACGTGGGGTG | -0.06
TGGGACACGTGTTTAA | -0.1
GAGGCCACGTGGTAAG | 0.02
GAGGTCACGTGGCCGG | 0.17
AACGGCACGTGGCTGG | 0
GTTCACACGTGGTCGG | 0.18
TTGACCACGTGGGAGG | -0.12
GTGGCCACGTGTAGTA | -0.06
TTGCACACGTGTGATT | 0.06
CGAGGCACGTGTAATG | 0.08
ACTTTCACGTGGTTAT | 0.15
GTGATCACGTGTTGGG | 0.13
GCGGACACGTGTTATG | 0.23
ATAGTCACGTGGCTTT | 0
TTTAGCACGTGATGAG | 0.14
GGGTGCACGTGGGGCA | -0.07
TCTAACACGTGGGTTT | -0.2
GAATGCACGTGGTTCG | -0.02
TGATGCACGTGATGAG | 0.13
GATGTCACGTGAATAG | 0.37
GGGTTCACGTGGAACG | 0.36
TAAAACACGTGGTAAT | 0.15
TGTGTCACGTGTTTGC | 0.03

Sequence | relative binding free energy [kcal/mol]
TTGTTCACGTGTAGGT | 0.17
TAATGCACGTGCATGT | -0.18
GTTAGCACGTGTTAAT | -0.07
GTGGTCACGTGTCGTA | 0.16
GGATACACGTGGTGTG | 0.07
AGTAGCACGTGTGTGA | -0.11
GTTAGCACGTGTAGTC | 0
AAGTACACGTGGGATT | 0.04
GGGTACACGTGAGTGA | 0.27
AGATACACGTGTTGAG | 0.19
ACGAACACGTGTGTGG | 0
GTGCGCACGTGTTTAA | -0.05
GTAGTCACGTGTGAAT | 0.13
TCGTACACGTGGATGT | 0.14
GGTGACACGTGGCTTG | 0.04
TGGAGCACGTGGTACT | -0.19
TGTAACACGTGCGGGT | -0.04
TGTAGCACGTGCAGTT | -0.04
GGCGGCACGTGAGGGC | 0.18
GTATGCACGTGATTTA | 0.06
GAGTACACGTGGGCTG | -0.01
GAACTCACGTGTGGTT | 0.26
GATTTCACGTGTGGAG | 0.24
TGGGTCACGTGAAAGA | 0.31
GTTTTCACGTGGGCGT | 0.21
ATCGACACGTGGTTTT | 0.07

Sequence | relative binding free energy [kcal/mol]
TACTGCACGTGGTATG | -0.16
ATAGTCACGTGGGGCC | -0.05
TGTTACACGTGGCTCT | 0.16
TTTTTCACGTGCTTTA | 0.17
TCGCGCACGTGTAGTG | -0.11
TTGGCCACGTGGGGTG | -0.26
AGATTCACGTGTGTTC | 0.35
AGGGTCACGTGTAGGA | 0.22
GGTAGCACGTGTGGCT | -0.02
CGGATCACGTGTTTTA | 0.13
ATATTCACGTGATGCG | 0.23
AAGTGCACGTGGTGCG | -0.2
CCGGACACGTGGGTGT | -0.15
AGTGGCACGTGCATGT | -0.33
TGCGTCACGTGTTGGA | 0.21
TGTTACACGTGTTGTG | 0.03
TCAATCACGTGTGAGG | 0.24
ATTAGCACGTGGGTGA | -0.19
CATGGCACGTGAGTGA | 0.06
TAGTGCACGTGAGAGA | 0.33
ATTAGCACGTGCGGTA | -0.14
TAATGCACGTGGATTT | 0.09
